{"source": "PubChem BioAssay AID445", "about": "(National Center for Advancing Translational Sciences (NCATS), 2006)", "note": "The whole screen tested about 110,000 compounds, of which about 40 (0.04%) were called active. Inconclusive results, whose numbers are uncertain, are shown with a selection of clear calls. Calls come from the whole dose curve; as a rule, active = well fitted curve in the direction sought with a large enough effect in the signal ratio (not every such curve was filed as active); inconclusive = small, poorly fitted or top-dose-only effect, or a change in a side signal; inactive = flat fitted curve, though single readings scatter; the % refers to the signal ratio. Potencies beside an inconclusive call are fits to weak or partial responses and may not hold up. Potency is the fitted concentration of half-maximal effect.", "data": [{"assay": "IkB Signaling;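 for IkBa stabilization activation: 0% = basal untreated cells and 100% = reference inhibitor full response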", "conditions": "ABC-DLBCL IkBa-CBG/CBR dual luciferase ratio (green luciferase fused to IkBa over red control in OCI-Ly3 lymphoma cells), 4 h; IkBa stabilization activation: at 57.1 µM (top of the series), scaled: untreated 0%, proteasome inhibitor 100% unless noted", "how_it_was_run": "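Luminescence ratio of IκBα-fused green versus native red beetle luciferase in OCI-Ly3 cells, 4 h post-doxycycline with compound; red signal alone, scaled from basal (0%) to zero light (-100%), flagged nonspecific or cytotoxic effects.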", "values": [{"smiles": "CCCCC(=O)Nc1c(C(=O)N2CCN(c3ccccc3)CC2)oc2ccccc12", "IkBa stabilization activation": "inconclusive: -2.76% [signal inhibitor]"}, {"smiles": "CSc1nnc(-c2ccccc2)c(=O)[nH]1", "IkBa stabilization activation": "inconclusive: 7.68% [signal inhibitor]"}, {"smiles": "CCOc1ccc(CNC(=O)c2cccn2-c2nnc(N3CCCCC3)s2)cc1OC", "IkBa stabilization activation": "inactive"}, {"smiles": "O=c1oc2ccccc2c2c1ncn2-c1ccccc1", "IkBa stabilization activation": "inactive"}, {"smiles": "Cn1c(=O)c2c(nc(CN3CCc4ccccc4C3)n2CCc2ccccc2)n(C)c1=O", "IkBa stabilization activation": "inactive"}, {"smiles": "COc1ccc(Cc2nn3c(-c4ccccc4OC)nnc3s2)cc1", "IkBa stabilization activation": "inconclusive: -3.9% [signal inhibitor]"}, {"smiles": "Cc1ccc2nc(-c3ccc4c(c3)OCCO4)cc(C(=O)O)c2c1", "Potency": "inconclusive: 25.1 µM [signal inhibitor, partial curve]"}, {"smiles": "COc1cccc(C(=O)Nc2cccc(C(=O)OCc3cc(=O)n4c5c(sc4n3)CCCC5)c2)c1", "Potency": "inconclusive: 15.8 µM [signal inhibitor]"}, {"smiles": "CCc1nn(CCCC(=O)NCc2cc(Br)ccc2OC)c(=O)c2cc3occc3n12", "IkBa stabilization activation": "inconclusive: 2.01% [signal inhibitor]"}, {"smiles": "Cc1ccc(Cn2c(SCC(C)C)nc3c2c(=O)n(C)c(=O)n3C)cc1", "IkBa stabilization activation": "inconclusive: 4.83% [signal inhibitor]"}, {"smiles": "Cc1ccc(-c2nnc(Nc3ccc(O)cc3)c3ccccc23)cc1S(=O)(=O)N1CCCCC1", "Potency": "inconclusive: 6.31 µM [signal inhibitor]"}, {"smiles": "CC(C)(C)C(=O)Nc1ccc2nc(SCC(=O)N3CCc4ccccc43)sc2c1", "IkBa stabilization activation": "inconclusive: -1.25% [signal inhibitor]"}, {"smiles": "O=C(CSc1nnnn1C1CCCCC1)Nc1nc2c(s1)CCCC2", "IkBa stabilization activation": "inconclusive: 4.82% [signal inhibitor]"}, {"smiles": "CS(=O)(=O)Cc1nc2ccccc2oc1=O", "Potency": "inconclusive: 15.8 µM [signal inhibitor, partial curve]"}, {"smiles": "CCCc1nc(SCc2cccnc2)c2c(=O)n(C)c(=O)n(C)c2n1", "IkBa stabilization activation": "inactive"}, {"smiles": "C[N+](C)(C)CC(=O)N/N=C\\c1c(O)ccc2ccccc12", "IkBa stabilization activation": "inactive: 1.84% [at 11.4 µM, scaled: untreated 0%, proteasome inhibitor 100%]"}, {"smiles": "Cc1ccc(CN2C(=O)N(c3ccccc3)C(=O)C2CC(=O)Nc2ccccc2)cc1", "note": "(stereo not given)", "IkBa stabilization activation": "inconclusive: 2.26% [signal inhibitor]"}, {"smiles": "COc1ccc(CC(=O)Nc2nc3ccccc3s2)cc1S(=O)(=O)N1CCOCC1", "IkBa stabilization activation": "inconclusive: 3.87% [signal inhibitor]"}, {"smiles": "CCCOc1ccc(C(=O)CCN2CCCCC2)cc1", "Potency": "inconclusive: 31.6 µM [signal inhibitor, partial curve]"}, {"smiles": "CCn1c(C(=O)N2CCC(C(=O)N3CCN(c4ccccn4)CC3)CC2)cc2sccc21", "IkBa stabilization activation": "inconclusive: 10.3% [signal inhibitor]"}, {"smiles": "CCc1cccc(C)c1NC(=O)Cn1cc2c(n1)CCCCC2", "IkBa stabilization activation": "inconclusive: 0.114% [signal inhibitor]"}, {"smiles": "Cc1ccc(CNC(=O)c2cc(=O)c3cc(C)cc(C)c3o2)cc1", "IkBa stabilization activation": "inactive"}, {"smiles": "Cc1nn(Cc2ccccc2)c2c1C(c1ccco1)C(C#N)=C(N)O2", "note": "(stereo not given)", "Potency": "inconclusive: 31.6 µM [signal activator, single point]"}, {"smiles": "COC(=O)c1ccccc1NC(=O)c1cnc2sc(N3CCOCC3)nn2c1=O", "IkBa stabilization activation": "inconclusive: 12.5% [signal inhibitor]"}, {"smiles": "Cc1cccc(NC(=O)COc2nsnc2N2CCOCC2)c1", "IkBa stabilization activation": "inconclusive: 17.7% [signal inhibitor]"}, {"smiles": "CCN1C(=O)c2ccccc2S(=O)c2ccc(C(=O)N3CCN(c4ccccc4OC)CC3)cc21", "note": "(stereo not given)", "IkBa stabilization activation": "inconclusive: 1.23% [signal inhibitor]"}, {"smiles": "Cc1ccn2cc(C(=O)Nc3ccccc3N3CCOCC3)nc2c1", "IkBa stabilization activation": "inactive"}, {"smiles": "COc1cccc(CNC(=O)CCCCCn2c(=O)[nH]c3cc(OC)c(OC)cc3c2=O)c1", "IkBa stabilization activation": "inconclusive: 2.61% [signal inhibitor]"}, {"smiles": "CN(Cc1ccccc1)C(=O)c1cc(-c2cccc(Cl)c2)on1", "IkBa stabilization activation": "inconclusive: 1.63% [signal inhibitor]"}, {"smiles": "CS(=O)(=O)N(CCc1ccccc1)CC(=O)N1CCN(Cc2ccc3c(c2)OCO3)CC1", "IkBa stabilization activation": "inconclusive: 2.91% [signal inhibitor]"}, {"smiles": "COc1c2ccoc2nc2c(OC)c(OCC(O)C(C)(C)O)ccc12", "note": "(stereo not given)", "IkBa stabilization activation": "inactive"}, {"smiles": "COc1ccccc1NC(=O)CSc1oc(-c2ccccc2)nc1S(=O)(=O)c1ccccc1", "IkBa stabilization activation": "inactive"}, {"smiles": "C=CCN1CCc2cc(O)c(O)cc2[C@H](c2ccccc2)C1", "IkBa stabilization activation": "inactive"}, {"smiles": "CC(C)n1c2ccccc2c2nc3ccccc3nc21", "IkBa stabilization activation": "inactive"}, {"smiles": "Cc1cccc(Cc2c(C)nc3nc(SCc4ccccc4F)nn3c2C)c1", "IkBa stabilization activation": "inconclusive: 3.51% [signal inhibitor]"}, {"smiles": "COc1ccc(-c2noc(CCC(=O)Nc3cc(OC)ccc3OC)n2)cc1", "IkBa stabilization activation": "inconclusive: 1.89% [signal inhibitor]"}, {"smiles": "CCCCn1c(N2CCC(Cc3ccccc3)CC2)nc2c1c(=O)[nH]c(=O)n2C", "IkBa stabilization activation": "inconclusive: -5.68% [signal inhibitor]"}, {"smiles": "O=c1/c(=C/c2ccccn2)sc2nc3ccccc3n12", "IkBa stabilization activation": "inconclusive: 11.3% [signal inhibitor]"}, {"smiles": "CCCc1nc(SCC(=O)N2CCC(Cc3ccccc3)CC2)c2c(=O)n(C)c(=O)n(C)c2n1", "IkBa stabilization activation": "inconclusive: 5.52% [signal inhibitor]"}, {"smiles": "CC(C)c1cc(-c2nc(-c3ccc(Br)cc3)no2)n[nH]1", "IkBa stabilization activation": "inconclusive: 2.84% [signal inhibitor]"}, {"smiles": "COc1ccc(CNc2ncncc2-c2ccc3c(c2)OCO3)c(OC)c1", "IkBa stabilization activation": "inactive: 0.54% [at 11.4 µM, scaled: untreated 0%, proteasome inhibitor 100%]"}, {"smiles": "COc1ccc2[nH]c(=O)c(CN(C(=O)c3cccc(Cl)c3)c3cccc(C)c3)cc2c1", "IkBa stabilization activation": "inconclusive: 0.413% [signal inhibitor]"}, {"smiles": "COc1cccc(Cn2c(=O)c(CCc3ccccc3)nc3cnc(N4CCNCC4)nc32)c1", "IkBa stabilization activation": "inactive: 0.664% [at 11.4 µM, scaled: untreated 0%, proteasome inhibitor 100%]"}, {"smiles": "COc1ccccc1C(=O)Nc1ccc2c(c1)nc1n2CCSC1", "IkBa stabilization activation": "inactive"}, {"smiles": "CCc1ccc(NC(=O)Cn2cnc3nc4c(cc3c2=O)CCCC4)cc1", "IkBa stabilization activation": "inconclusive: -0.403% [signal inhibitor]"}, {"smiles": "CCOC(=O)c1cc2c(=O)n3ccccc3nc2n(CC(C)C)c1=NC(=O)C(C)(C)Oc1ccc(Cl)cc1", "IkBa stabilization activation": "inconclusive: -0.241% [signal inhibitor]"}, {"smiles": "Cc1ccc(C(=O)N2CC(=O)Nc3ccc(Br)cc3C2c2ccc(F)cc2)cc1C", "note": "(stereo not given)", "Potency": "inconclusive: 25.1 µM [signal inhibitor]"}, {"smiles": "CC1CN(C(c2cccs2)c2sc3ncnn3c2O)CC(C)O1", "note": "(stereo not given)", "IkBa stabilization activation": "inactive"}, {"smiles": "Cn1c(CCCOc2ccc(Cl)cc2Cl)nnc1SCC(=O)Nc1nccs1", "IkBa stabilization activation": "inactive"}, {"smiles": "COc1ccc(C)cc1NC(=O)C1CCCN1S(=O)(=O)c1ccc2c(c1)CCC(=O)N2", "note": "(stereo not given)", "IkBa stabilization activation": "inactive"}, {"smiles": "CC(C)CCNC(=O)c1c[nH]c2ccc(S(=O)(=O)Nc3cccc(C(F)(F)F)c3)cc2c1=O", "IkBa stabilization activation": "inconclusive: 3.62% [signal inhibitor]"}, {"smiles": "CCOc1ccc2cc(C#N)c(SCC(=O)N3CCC(C)CC3)nc2c1", "IkBa stabilization activation": "inconclusive: 0.782% [signal inhibitor]"}, {"smiles": "COc1ccc(C(CNC(=O)c2oc3ccccc3c2C)N2CCCCC2)cc1", "note": "(stereo not given)", "IkBa stabilization activation": "inconclusive: 2.2% [signal inhibitor]"}, {"smiles": "CN1CCN(c2ncnc3ccc(-c4cccc(NS(C)(=O)=O)c4)cc23)CC1", "IkBa stabilization activation": "inactive: -3.73% [at 11.4 µM, scaled: untreated 0%, proteasome inhibitor 100%]"}, {"smiles": "CCc1c(C)sc2c1CCN(C(=O)Nc1ccccc1Cl)C2c1ccc(OC)cc1", "note": "(stereo not given)", "IkBa stabilization activation": "inconclusive: 0.989% [signal inhibitor]"}, {"smiles": "Cc1cc(-n2c(SCc3ccccc3F)nc3[nH]ncc3c2=O)ccc1Cl", "IkBa stabilization activation": "inconclusive: -3.52% [signal inhibitor]"}, {"smiles": "Cc1ccc(-c2noc(-c3ccc(NC4CCCC4)c([N+](=O)[O-])c3)n2)cc1", "IkBa stabilization activation": "inactive"}, {"smiles": "COc1ccc(-c2csc(NC(C)=O)n2)cc1OC", "IkBa stabilization activation": "inconclusive: -5.43% [signal activator]"}, {"smiles": "CS(=O)(=O)c1ncc(N(Cc2ccco2)Cc2cccs2)c(C(=O)Nc2ccccc2F)n1", "IkBa stabilization activation": "inconclusive: 0.634% [signal inhibitor]"}, {"smiles": "CC1CCc2onc(C(=O)N3CCN(c4ccc(Cl)cc4)CC3)c2C1", "note": "(stereo not given)", "IkBa stabilization activation": "inconclusive: -2.8% [signal inhibitor]"}, {"smiles": "COc1ccc(S(=O)(=O)Nc2cc(Cl)ccc2OC)cc1", "IkBa stabilization activation": "inactive"}, {"smiles": "c1ccc2c(c1)c1ccccc1n2Cn1c2ccccc2c2ccccc21", "IkBa stabilization activation": "inactive: 1% [at 11.4 µM, scaled: untreated 0%, proteasome inhibitor 100%]"}, {"smiles": "Cc1ccc(-c2noc(-c3nnn(CC(=O)Nc4ccc(C)cc4Cl)c3N)n2)cc1", "IkBa stabilization activation": "inactive"}, {"smiles": "COc1cc(CN2CCN(c3cccc(Cl)c3)CC2)cc(OC)c1OC", "IkBa stabilization activation": "inactive"}, {"smiles": "O=C(CCCCCNc1nc(=S)[nH]c2ccccc12)N1CCN(c2ccccn2)CC1", "IkBa stabilization activation": "inconclusive: -0.902% [signal inhibitor]"}, {"smiles": "Cc1cc(C)cc(NS(=O)(=O)c2ccc3[nH]cc(C(=O)N4CCCCC4)c(=O)c3c2)c1", "IkBa stabilization activation": "inactive"}, {"smiles": "Clc1cc(Cl)c(OCc2nc(-c3ccccn3)no2)cc1Cl", "IkBa stabilization activation": "inactive"}, {"smiles": "Cc1ccc(NC(=O)CCc2nc(-c3ccccc3F)no2)c(C)c1", "IkBa stabilization activation": "inconclusive: -1.07% [signal inhibitor]"}, {"smiles": "CS(=O)(=O)c1ncc(Cl)c(C(=O)N(Cc2ccc(Cl)cc2)Cc2ccco2)n1", "IkBa stabilization activation": "inconclusive: -3.22% [signal inhibitor]"}, {"smiles": "COc1cc(Cl)c(C)cc1NC(=O)c1c(C)oc2nc(C)nc(N3CCCC3)c12", "IkBa stabilization activation": "inconclusive: -2.59% [signal inhibitor]"}]}]}
